{"source": "patent US20140031278A1", "about": "“Novel Glucagon Analogues” (NOVO NORDISK A/S, priority 2011, published 2014)", "assay_type_in_all_cases": "physicochemical", "key": {"[1]": {"assay": "ThT fibrillation assay for physical stability (lag time, recovery)"}, "[2]": {"assay": "Assay (V) Long-term storage stability in Penfill (visual inspection, turbidity)", "settings": "250 μM peptide (Aib analogue 125 μM); for Visual insp.: pH 7.4, Penfill"}, "[3]": {"assay": "Stability of peptide secondary structure during long-term storage (far UV CD)", "settings": "250 μM peptide, 184 mM propyleneglycol, 8 mM disodium phosphate pH 7.4; various storage temperatures and times, FIG. 5"}}, "note": "At least one structure is not confirmed: it was looked up by name or label, or the drawing left a doubt. *1 amine or outer side, *2 acyl side, *3 side chain or, on linkers, in order; H or OH if unused. Where a SMILES comes first, the peptide text is derived from it. Side-chain parts run from the residue outwards. γGlu = O=C(O)[C@H](CCC(=O)[*:2])N[*:1]", "data": [{"smiles": "CC(C)C[C@H](NC(=O)[C@H](Cc1ccc(O)cc1)NC(=O)[C@H](CCCCN)NC(=O)[C@H](CO)NC(=O)[C@H](Cc1ccc(O)cc1)NC(=O)[C@H](CC(=O)O)NC(=O)[C@H](CO)NC(=O)[C@@H](NC(=O)[C@H](Cc1ccccc1)NC(=O)[C@@H](NC(=O)CNC(=O)[C@H](Cc1c[nH]cn1)NC(=O)[C@H](CO)NC(=O)[C@@H](N)Cc1c[nH]cn1)[C@@H](C)O)[C@@H](C)O)C(=O)N[C@@H](CCC(=O)O)C(=O)N[C@@H](CO)C(=O)N[C@@H](CCCNC(=N)N)C(=O)N[C@@H](CCCNC(=N)N)C(=O)N[C@@H](C)C(=O)N[C@@H](C)C(=O)N[C@@H](CC(=O)O)C(=O)N[C@@H](Cc1ccccc1)C(=O)N[C@H](C(=O)N[C@@H](CCCCNC(=O)CC[C@H](NC(=O)CC[C@H](NC(=O)CC[C@H](NC(=O)CC[C@H](N)C(=O)O)C(=O)O)C(=O)O)C(=O)O)C(=O)N[C@@H](Cc1c[nH]c2ccccc12)C(=O)N[C@@H](CC(C)C)C(=O)N[C@@H](CC(C)C)C(=O)N[C@@H](CO)C(=O)N[C@H](C(=O)O)[C@@H](C)O)C(C)C", "note": "[Example 5, N^ε24-[(4S)-4-[[(4S)-4-[[(4S)-4-[[(4S)-4-amino-4-carboxybutanoyl]amino]-4-carboxybutanoyl]amino]-4-carboxybutanoyl]amino]-4-carboxybutanoyl]-[His3,Glu15,Ala20,Lys24,Leu27,Ser28]-Glucagon] (H-HSHGTFTSDYSKYLESRRAADFVK([γGlu-γGlu-γGlu-γGlu])WLLST-OH)", "values": [{"measurement": "ThT assay [Lag time]", "setting": "[1]; absence of increased ThT fluorescence noted as lag time of 45 hours", "result": 45, "unit": "h"}, {"measurement": "ThT assay [Recovery]", "setting": "[1]; peptide concentration in filtered supernatant after ThT assay as percentage of initial", "result": 100, "unit": "%"}, {"measurement": "Visual insp.", "setting": "[2]; 4 w @ 25° C.", "result": "Clear"}, {"measurement": "NTU (Nephelometric Turbidity Units)", "setting": "[2]; 4 w @ 25° C., pH 7.4, single Penfill", "result": 0.442, "unit": "NTU"}, {"measurement": "Visual insp.", "setting": "[2]; 4 w @ 37° C.", "result": "Clear"}, {"measurement": "NTU (Nephelometric Turbidity Units)", "setting": "[2]; 4 w @ 37° C., pH 7.4, single Penfill", "result": 0.409, "unit": "NTU"}, {"measurement": "Visual insp.", "setting": "[2]; 8 w @ 25° C.", "result": "Clear"}, {"measurement": "NTU (Nephelometric Turbidity Units)", "setting": "[2]; 8 w @ 25° C., pH 7.4, single Penfill", "result": 0.427, "unit": "NTU"}, {"measurement": "Visual insp.", "setting": "[2]; 16 w @ 25° C.", "result": "Clear"}, {"measurement": "NTU (Nephelometric Turbidity Units)", "setting": "[2]; 16 w @ 25° C., pH 7.4, single Penfill", "result": 0.491, "unit": "NTU"}, {"measurement": "Visual insp.", "setting": "[2]; 24 w @ 5° C.", "result": "Clear"}, {"measurement": "NTU (Nephelometric Turbidity Units)", "setting": "[2]; 24 w @ 5° C., pH 7.4, single Penfill", "result": 0.393, "unit": "NTU"}, {"measurement": "Visual insp.", "setting": "[2]; 24 w @ 25° C.", "result": "Clear"}, {"measurement": "NTU (Nephelometric Turbidity Units)", "setting": "[2]; 24 w @ 25° C., pH 7.4, single Penfill", "result": 0.455, "unit": "NTU"}, {"measurement": "NTU (Nephelometric Turbidity Units)", "setting": "[2]; Start, minimum and maximum of all Penfill, pH 7.4", "result": "0.362-0.622 NTU"}, {"measurement": "Visual insp.", "setting": "[2]; Start", "result": "Clear"}, {"measurement": "secondary structure by far UV CD spectra during storage", "setting": "[3]", "result": "remains stable and intact"}]}]}
